Paper PMC12136788
This is one part of the list.

T1: UNK ZnF1-3 (human, UniProt Q9C0B0 31-174)
T1 sequence: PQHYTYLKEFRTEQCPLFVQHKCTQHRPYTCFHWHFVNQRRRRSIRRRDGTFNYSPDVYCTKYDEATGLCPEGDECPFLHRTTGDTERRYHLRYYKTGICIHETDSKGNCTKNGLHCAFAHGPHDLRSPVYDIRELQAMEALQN

B1: chr18:35748043:35748044:+_ENSMUSG00000037236_ENSMUST00000166793|perfect_dup|motif|central (ssRNA)
RNA: GGGAGUUCUACAGUCCGACGAUCUGUAUAAAAGAGUGAACACAGCUUACAGUAAAACCCUGUUUUAGGUAUCACAUAGUCGGUACCAACAGGAACAUUAGGCUGAUAUGGUCCGAUUCUAUACUCAUCGGGAAUUGUAUAAUCCAACAGAGGAUUGAGCAUCA
B2: chr1:135034296:135034297:+_ENSMUSG00000046062_ENSMUST00000052529|mus_mus|FALSE|FALSE (ssRNA)
RNA: GGGAGUUCUACAGUCCGACGAUCCAAUCCCCUACCUCAAAAUAUAACAGACAUAAAAACAUACAAAAACAAAACCCAUAAAGCCCAUUAAUUUUAGAACAGAAAAAGCACACAAGAACUCAAUGCAUGCAUAAUUUGAGUUAGCAACAGAGGAUUGAGCAUCA
B3: chr1:71529667:71529668:-_ENSG00000132485_ENST00000254821|hu_mus|FALSE|FALSE (ssRNA)
RNA: GGGAGUUCUACAGUCCGACGAUCUUGCUGCUGAAGAGACUGUUAAAGAGAAACCUUUUAACUUUUAAACCAGAGAACAAAAUGGAUCUCAAGUGACCAGAUUUUAAUUUGAGAAAUAAAACUCCAAAAGCAUUUUAAGCCAUACAACAGAGGAUUGAGCAUCA
B4: chr4:115894766:115894767:+_ENSMUSG00000028698_ENSMUST00000030464|mus_hu|mus_mus_mus_hu_True|1_78 (ssRNA)
RNA: GGGAGUUCUACAGUCCGACGAUCUUCCACACGGAAAUGUACUUCGGGUUUUCCAACGCCAGUACAAAGUCCGGCCAAACUACCCGAACAGGGUCCUCCCCCUCUCUCCUACAGAACACAACAAAAUGCCCCCGAACCCCGAACCAACAGAGGAUUGAGCAUCA
B5: chr2:42797587:42797588:+_ENSG00000057935_ENST00000405094|hu_hu|motif|central (ssRNA)
RNA: GGGAGUUCUACAGUCCGACGAUCAUAAAAGCAUACUACUUUUGCUUCCACGUUGCCACUUGCAGUCUUGUUGAGUUCUUCGGUCCUUCUUAUUAGGUAUGGGUUGCUGGAGGAAUUCUCAAAGUAGACAUAAUCUCCGACCCGCAACAGAGGAUUGAGCAUCA
B6: chr11:87044496:87044497:-_ENSMUSG00000046442_ENSMUST00000055438|mus_hu|motif|central (ssRNA)
RNA: GGGAGUUCUACAGUCCGACGAUCUGGAAUAUCAUGAGUCUUUCUGAGCUUCCUCAUGUUUUCACUGUACCCUUUCCAACGGUUUUGCCUCCAUGGCAGAGAACUUCUUAUCCUAUUUCUCUUCCCACUUCCAGUAAGUGAGGACAACAGAGGAUUGAGCAUCA
B7: chr11:98549071:98549072:+_ENSMUSG00000017221_ENSMUST00000017365|mus_mus|FALSE|FALSE (ssRNA)
RNA: GGGAGUUCUACAGUCCGACGAUCAUCCAGCUUGUCCAGGAACUCAUAGACCCGGGCGUGAUAAUAGUAACACUUGGCAGCUACGAGGUCCAGGGCUCGGCGGUUCUGAGUGCUGAUCUUCUGCAUCAGGUCAUCAGAGAUUUUCAACAGAGGAUUGAGCAUCA
B8: chr2:9570881:9570882:+_ENSG00000119203_ENST00000238112|hu_mus|hu_hu_hu_mus_False|8_58 (ssRNA)
RNA: GGGAGUUCUACAGUCCGACGAUCACUUGUCUUCUGAAGGAACCAGGGCAGGGCUCCACAGUGAUCCAAAUGGAAAUGACUAAUUAACAGAAGGUCGAUCUCAGCUGGGUCGAUAAGGUCAAUGUAAGGAAGAGCAUCCAUUCCCAACAGAGGAUUGAGCAUCA
B9: chr7:135832113:135832114:+_ENSMUSG00000042105_ENSMUST00000118605|mus_hu|FALSE|FALSE (ssRNA)
RNA: GGGAGUUCUACAGUCCGACGAUCGCAGGAAAAAUAUAACCCCACAGGAACUUUAACCAUAAGCCCUGCAAAAAGGAGAAAAAUCUUGAAAGUCAUAGCCACAACGCCCUCAGACUUGGGCUCGGCUGCUGCGGCAGUGGCAGCCAACAGAGGAUUGAGCAUCA
B10: chr1:163117127:163117128:-_ENSG00000143248_ENST00000313961|hu_mus|hu_hu_hu_mus_False|1_68 (ssRNA)
RNA: GGGAGUUCUACAGUCCGACGAUCUGCUACAAAGGAUGUAACUCAACUCACAGGGCAACUUUUGGAAGCCUGGCUAAAUGACUACUUGAUUAGCUCCUUAUAAAAUUCAGAGCGCACAAAGCGGGGCAGAGAAUCCUUUUCCAUCAACAGAGGAUUGAGCAUCA
B11: chr12:39756943:39756944:-_ENSG00000139116_ENST00000544797|hu_mus|hu_hu_hu_mus_False|18_108 (ssRNA)
RNA: GGGAGUUCUACAGUCCGACGAUCGGUUUGGCUAUUACCCCCAAGGGAAUCCUGCAAGAGUCUUGUCAGCUUAGAGUCUCUGUAAGGGACAUGGGUGGCUCUCUUGCUCUUGUCCCCCAAGGCACUUAUUACAUUCCCAAGAGCCAACAGAGGAUUGAGCAUCA
B12: 28714194_28714314_1682_CDS_ENSMUSG00000048271_ENSMUST00000114884|mouse|control|control (ssRNA)
RNA: GGGAGUUCUACAGUCCGACGAUCAGUGAACGGUAAGGGACUCUGAGUAGGAACAGGAUGGCUGCUGUUCAGGAGCGUGGGAGGAGGCGGCGGUGGAGGAGGACUUCGCUGUUCCAAAAAAAGAUGACUGGGGAAUCUUGGUUCCAACAGAGGAUUGAGCAUCA
B13: chr6:41757443:41757444:+_ENSG00000214736_ENST00000398881|hu_mus|hu_hu_hu_mus_False|68_108 (ssRNA)
RNA: GGGAGUUCUACAGUCCGACGAUCGAACUGUCUGCUGGCAACAUCUCAGCCGACACUGGGGGAUGGGGGAACAAAAGGGGGGGGUUCAGGCAAGGAGAGGGAGUCAACUUCAGCUGCCACUCAGGUAGGAUCUUGUGGUCACAGCAACAGAGGAUUGAGCAUCA
B14: chr2:230653580:230653581:-_ENSG00000153827_ENST00000389045|hu_mus|FALSE|FALSE (ssRNA)
RNA: GGGAGUUCUACAGUCCGACGAUCAGUGAGCCAUGUUGGGAUGUUUCCUGUCAUGAUUACUAGAGGGUCUUGAAGCUGCCUAUUUGCUUUUGCUGUUAAUUUACUGUUAAUAAAUUCACUAGUUGGAAUAAUCUCCUUGCACAUCAACAGAGGAUUGAGCAUCA
B15: chr12:96663167:96663168:+_ENSG00000111145_ENST00000228741|hu_hu|FALSE|FALSE (ssRNA)
RNA: GGGAGUUCUACAGUCCGACGAUCAUGGAUCUAGAGCAUACAUUAAUCCCAGUUUCCAAAGGAAAAGAAAGAAUCAGAUCUAUAGUCAUUUAAAUAUUUCCAAUCAGCAUUUACGUAAACAAGUAUACUAAAAAUAGUAGUUUUCAACAGAGGAUUGAGCAUCA
B16: chr19:60011576:60011577:-_ENSMUSG00000040022_ENSMUST00000171986|mus_mus|motif|central (ssRNA)
RNA: GGGAGUUCUACAGUCCGACGAUCUUUUGCUGUAAACGGGUUAGUUGACUCAUAUUCAAAAUAGUCCUGCCGGUUUUCACGGAAAGCACUAGGUGAUUUCAAGUCACAUGGGCUAUCAGAUCCACCAUUGUUCAGCUUGUCAGGCAACAGAGGAUUGAGCAUCA
B17: chr11:116197844:116197845:-_ENSMUSG00000052949_ENSMUST00000100202|mus_mus|motif|central (ssRNA)
RNA: GGGAGUUCUACAGUCCGACGAUCAGCACACGCACGCACACACACACAUACACACACACAUACACACAGGUGUUCAGGCCCGGAAACAAAGUGUGCAGCCAGCACGCCAACACCAGAUGGACAGGACUAGUUCCCCAGUGGGAUCAACAGAGGAUUGAGCAUCA
B18: chr11:23762696:23762697:-_ENSMUSG00000020273_ENSMUST00000020513|mus_hu|FALSE|FALSE (ssRNA)
RNA: GGGAGUUCUACAGUCCGACGAUCACAAUAAAGGUUUUAAACGUUUCUCUUUGAAAAGAUGGUAUCUUACAGUACAUACAAAAAUACUCUGAAAAUACAUACGACUUCAUUUACAAAACACUGAAUCAACAUAUUACAAGAAUUCAACAGAGGAUUGAGCAUCA
B19: chr15:84027467:84027468:+_ENSMUSG00000022437_ENSMUST00000023071|mus_mus|FALSE|FALSE (ssRNA)
RNA: GGGAGUUCUACAGUCCGACGAUCUUUAGCCUUAAAGACCUCUCCGAUUUCACAAAUGAUGAUGUCAUCCUUAGUCCGCCCAAGUCCAUCAAAAUGAACAUGCUGAACCACCACAUCUUUGUUUUCCAGGAUUUCCUGUUUCGCCAACAGAGGAUUGAGCAUCA
B20: chr2:65331917:65331918:-_ENSG00000138069_ENST00000409751|hu_mus|FALSE|FALSE (ssRNA)
RNA: GGGAGUUCUACAGUCCGACGAUCGAAAUCCACACCAAUUGUGCUGAUGUAGCUUUCCGUAUACGUAUCAUCUGCAAACCUAAGGAGAAGGCAGGACUUUCCAACCCCAGAAUCGCCAAUCAGAAGUAACUUGAAUAAAUAAUCCAACAGAGGAUUGAGCAUCA
B21: 21271043_21271163_101_3pUTR_ENSMUSG00000001891_ENSMUST00000060895|mouse|control|control (ssRNA)
RNA: GGGAGUUCUACAGUCCGACGAUCGUUGGGGGCCUGGAAUCAGGUCUCGCACGCUGCACGAGCGUGGCCGAGGCGACCUCCCCUCCGCUCCCGUCACACGCAAACACCUGGAGCCUGGCGCCAGCGUGCGCAGCCCCUGACCCUCAACAGAGGAUUGAGCAUCA
B22: chr11:86533089:86533090:-_ENSMUSG00000047126_ENSMUST00000103186|mus_hu|FALSE|FALSE (ssRNA)
RNA: GGGAGUUCUACAGUCCGACGAUCACGCUGCAGUAGGCCAGCCUUUUCACACAGUUGAGCAAUAUGAGCCCGGUCAUAAUGUGUGAACAUCUGAUUGCCUAGAAUAGCAUCUGCAACUUGAGGCGCAUGCAUAAGGUUCAUCUCCAACAGAGGAUUGAGCAUCA

biological target: T1, UNK ZnF1-3; test: nsRBNS (natural sequence RNA bind-n-seq); RBNS binding buffer (assumed for nsRBNS): 25 mM Tris pH 7.5, 150 mM KCl, 3 mM MgCl2, 0.01% Triton X-100, 500 ug/ml BSA, 20 U/ml SUPERase-In, 4 C; UNK is unkempt and MSI1 is Musashi-1; names of the RNAs are library labels; protein concentration not given here; high values mean tight binding

Question: For B1, which binding signal is on record?
Answer: 0.49 enrichment R

Question: How did the binding signal turn out when B2 was run?
Answer: 2.92 enrichment R

Question: B3 was tested. Which binding signal did it give?
Answer: 1.86 enrichment R

Question: Which binding signal does the source give for B4 here?
Answer: 1.03 enrichment R

Question: With B5 as the binder, how does the binding signal read?
Answer: 0.932 enrichment R

Question: Which binding signal does the source give for B6 here?
Answer: 0.46 enrichment R

Question: With B7 as the binder, how does the binding signal read?
Answer: 0.933 enrichment R

Question: How did the binding signal turn out when B8 was run?
Answer: 1.88 enrichment R

Question: With B9 as the binder, how does the binding signal read?
Answer: 1.14 enrichment R

Question: For B10, which binding signal is on record?
Answer: 1.24 enrichment R

Question: Which binding signal does the source give for B11 here?
Answer: 0.579 enrichment R

Question: B12 was tested. Which binding signal did it give?
Answer: 1.71 enrichment R

Question: For B13, which binding signal is on record?
Answer: 2.1 enrichment R

Question: For B14, which binding signal is on record?
Answer: 0.899 enrichment R

Question: How did the binding signal turn out when B15 was run?
Answer: 0.59 enrichment R

Question: Which binding signal does the source give for B16 here?
Answer: 0.688 enrichment R

Question: With B17 as the binder, how does the binding signal read?
Answer: 2.17 enrichment R

Question: For B18, which binding signal is on record?
Answer: 0.65 enrichment R

Question: For B19, which binding signal is on record?
Answer: 0.847 enrichment R

Question: B20 was tested. Which binding signal did it give?
Answer: 1.33 enrichment R

Question: Which binding signal does the source give for B21 here?
Answer: 0.613 enrichment R

Question: B22 was tested. Which binding signal did it give?
Answer: 0.887 enrichment R
